Data published in PMC4336329 (PLoS ONE, 2015).
About 2,200 (0.71%) of roughly 310,000 compounds showed an effect of 50% or more. Effects have a minus sign here. This is one part of the list.

molecular target: human ether-à-go-go-related gene (hERG) potassium channel (human, UniProt Q12809); test: primary screen, population patch clamp on CHO cells stably expressing hERG
Sequence (Q12809 whole entry, looked up): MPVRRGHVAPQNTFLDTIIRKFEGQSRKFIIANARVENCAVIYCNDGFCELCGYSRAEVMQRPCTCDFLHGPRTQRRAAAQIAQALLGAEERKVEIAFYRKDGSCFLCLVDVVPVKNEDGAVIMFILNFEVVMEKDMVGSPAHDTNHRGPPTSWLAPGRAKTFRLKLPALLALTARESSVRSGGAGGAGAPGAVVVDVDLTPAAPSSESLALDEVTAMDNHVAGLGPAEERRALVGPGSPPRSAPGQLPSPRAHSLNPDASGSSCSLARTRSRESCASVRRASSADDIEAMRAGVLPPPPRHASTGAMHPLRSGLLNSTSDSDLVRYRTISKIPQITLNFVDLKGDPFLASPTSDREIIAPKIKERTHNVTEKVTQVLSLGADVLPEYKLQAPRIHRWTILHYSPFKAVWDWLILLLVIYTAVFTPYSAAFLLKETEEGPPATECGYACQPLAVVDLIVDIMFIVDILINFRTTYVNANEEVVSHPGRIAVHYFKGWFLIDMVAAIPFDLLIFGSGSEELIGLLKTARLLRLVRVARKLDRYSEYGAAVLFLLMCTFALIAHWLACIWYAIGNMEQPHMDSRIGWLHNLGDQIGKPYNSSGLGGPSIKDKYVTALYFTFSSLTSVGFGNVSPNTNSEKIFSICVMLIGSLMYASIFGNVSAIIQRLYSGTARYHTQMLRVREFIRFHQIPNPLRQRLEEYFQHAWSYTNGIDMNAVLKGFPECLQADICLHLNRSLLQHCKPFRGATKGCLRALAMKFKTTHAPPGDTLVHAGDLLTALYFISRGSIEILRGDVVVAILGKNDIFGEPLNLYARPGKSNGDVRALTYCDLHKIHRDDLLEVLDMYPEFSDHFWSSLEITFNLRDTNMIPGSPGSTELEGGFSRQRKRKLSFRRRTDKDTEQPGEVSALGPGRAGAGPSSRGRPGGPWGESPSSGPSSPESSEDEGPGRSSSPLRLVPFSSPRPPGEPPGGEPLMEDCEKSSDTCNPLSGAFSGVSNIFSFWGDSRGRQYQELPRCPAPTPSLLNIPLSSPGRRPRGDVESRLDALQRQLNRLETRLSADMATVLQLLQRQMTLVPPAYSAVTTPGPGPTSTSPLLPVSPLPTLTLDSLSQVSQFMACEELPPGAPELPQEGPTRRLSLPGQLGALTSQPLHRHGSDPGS

Row | SMILES | hERG current change (%, negative = inhibition) at 1uM
1 | CNC(=O)Nc1ccc2nc(C)oc2c1 | 18.7%
2 | O=c1c2ccccc2nc(-c2ccoc2)n1-c1ccccc1Cl | 4.71%
3 | O=C(CSc1c[nH]c2ccccc12)NC1CCCC1 | 17%
4 | Nc1nonc1OCCN1CCN(c2ccc([N+](=O)[O-])c3cccnc23)CC1 | -28.6%
5 | COc1ccc(S(=O)(=O)N(C)CC(=O)N2CCC(C)CC2)cc1Cl | 9.71%
6 | COc1ccc(N=Cc2c(O)ccc3ccccc23)cc1 | 12.5%
7 | O=C(Nc1ccc2nc[nH]c2c1)c1ccco1 | 1.77%
8 | COC(=O)c1nc[nH]c1C(=O)OC | 18.4%
9 | Cc1ccc(NC(=O)Cn2c(=O)n(Cc3ccco3)c(=N)c3c4c(sc32)COC(C)(C)C4)cc1 | 5.82%
10 | O=C(Cc1c(O)c2ccccc2oc1=O)c1ccc(F)cc1 | 0.324%
11 | Cc1ccc(-c2noc(-c3ccno3)n2)cc1 | 17.8%
12 | CCOc1ccc(S(=O)(=O)NC(Cc2cnc[nH]2)C(=O)O)cc1 (stereo not shown) | 6.38%
13 | CCOc1ccc(S(=O)(=O)Nc2ccccc2SC)cc1 | 1.72%
14 | Cc1c2cnn(CC(=O)NC3CCCC3)c(=O)c2c(C)n1Cc1ccccc1 | 12.4%
15 | CN1CCN(c2ccc(C(CC(N)=O)NC(=O)Cc3ccc(Br)cc3)cc2[N+](=O)[O-])CC1 (stereo not shown) | 6.05%
16 | CCOc1ccc(Br)cc1C(=S)N1CCCC1 | 14.5%
17 | COc1ccc([C@H]2CC(=O)C=C(c3ccc(-c4ccccc4)c(F)c3)C2)cc1 | 11.4%
18 | CCN(CC)CCN/N=C(\C)c1c(O)[nH]c(=O)[nH]c1=O | 11.1%
19 | CCOC(=O)/C(C#N)=C/c1cc2ccccc2nc1N1CCOCC1 | -0.385%
20 | CCC1(C)SC(NC(C)=O)=NN1C(C)=O (stereo not shown) | 5.87%
21 | CC(C)n1cc(/C=N/Nc2ccc(C(=O)O)cc2)c2ccccc21 | 7.92%
22 | COC(=O)/C(C#N)=C\c1c(OC)[nH]c2ccccc12 | 9.2%
23 | O=C(CN(C(=O)CCC(=O)Nc1nccs1)c1cccc(F)c1)NCc1ccc(F)cc1 | 7.69%

Row | SMILES | hERG current change (%, negative = inhibition) at 1uM
24 | O=C(N/N=C/c1ccc(N2CCOCC2)cc1)c1ccccn1 | 6.8%
25 | CCCCNC(=S)Nc1ccc(F)cc1 | 8.45%
26 | CCCCNc1nc(CC(C)=O)ns1 | 9.33%
27 | COc1ccc(CCNC(=O)CSc2nnc3ccc(-c4cccnc4)nn23)cc1 | 4.77%
28 | COc1ccc(NC(=S)Nc2ncccc2C)c(OC)c1 | 14%
29 | O/N=C1\CCCc2ccc3ccccc3c21 | 12.3%
30 | CC1CCc2sc3nc(NCc4ccco4)n4ncnc4c3c2C1 (stereo not shown) | -1.55%
31 | CCc1ccc(Nc2n[n+](C)c(-c3ccncc3)s2)cc1.[Cl-] | 7.2%
32 | Cc1ccc(NC2CCCN(C(=O)c3cccc4nccnc34)C2)cc1C (stereo not shown) | 19.7%
33 | CCCCOC(=O)c1nc(Cl)c(Cl)c(N)c1Cl | 12%
34 | Cc1ccc(N2C(=O)CC(Sc3ccccc3C(=O)O)C2=O)c([N+](=O)[O-])c1 (stereo not shown) | 8.47%
35 | CC(C)c1cccc(C(C)C)c1NC(=O)COC(=O)C1CCC1 | 10.4%
36 | COCCN=C1Sc2nc3ccc(C)cc3cc2CN1Cc1ccco1 | -7.51%
37 | CCc1ccc(NC(=O)CC2C(=O)Nc3c2c(=O)n(C)c(=O)n3C)cc1 (stereo not shown) | 7.15%
38 | Cc1cc(C)cc(OCC(=O)OCC(=O)c2c(N)n(C)c(=O)n(C)c2=O)c1 | 0.87%
39 | Cc1cc(C(=O)COc2cccc([N+](=O)[O-])c2)c(C)n1C1CC1 | 1.64%
40 | CC(C)n1c(=S)[nH]c2ccccc2c1=O | 10.7%
41 | O=C(Nc1cccc(Cl)c1)OCc1ccccn1 | 4.71%
42 | O=C(COc1ccc2c3c(c(=O)oc2c1)CCC3)NCC(O)c1ccccc1 (stereo not shown) | 16.1%
43 | Cc1cc(C)nc(OC(C(=O)O)C(OCCc2ccccc2)(c2ccc(F)cc2)c2ccc(F)cc2)n1 (stereo not shown) | 14.1%
44 | CCCCCCC(C)n1[nH]c(=O)cc1N (stereo not shown) | 10.4%
45 | Cc1cc(C)nc(N(C#N)CN2C(=O)c3ccccc3S2(=O)=O)n1 | 4.95%
46 | Cc1ccc(-c2cccc(NC(=O)C3C4C=CC(C4)C3C(=O)O)c2)o1 (stereo not shown) | -0.712%

Row | SMILES | hERG current change (%, negative = inhibition) at 1uM
47 | CN(Cc1nccn1C)C(=O)CC1C(=O)NCCN1Cc1cccc(Oc2ccccc2)c1 (stereo not shown) | -3.54%
48 | COc1ccc(NC(=O)CCCn2c(=O)[nH]c3ccccc3c2=O)cc1 | 3.34%
49 | O=C(NNS(=O)(=O)c1ccc(Cl)cc1)C1CCN(Cc2ccccc2)CC1 | 11.4%
50 | O=Cc1cn(Cc2c(F)cccc2Cl)nc1-c1ccccc1 | 12.8%
51 | CCOCC(=O)Nc1nc2ccccc2s1 | 15.9%
52 | CCOc1ccc(N=C(C)C2=C(O)c3ccccc3C2=O)cc1 | 6.16%
53 | CCS(=O)(=O)c1nc(S(=O)(=O)c2ccc(C)cc2)c(N2CCC3(CC2)OCCO3)s1 | 7.8%
54 | CCC(C)(C)NC(=O)C(OC(=O)c1ccco1)c1ccccc1OC (stereo not shown) | -2.92%
55 | CCN1CCN(CC(O)COc2ccc(C)c(C)c2)CC1.Cl (stereo not shown) | 0.714%
56 | O=S(=O)(NC1=NCCCCC1)c1cccs1 | 9.46%
57 | Cc1ccc(S(=O)(=O)Nc2ccc(S(=O)(=O)N3CCCC3)cc2)cc1 | 3.43%
58 | O=C(NC(=S)N1CCN(c2ccccc2)CC1)c1ccc(S(=O)(=O)N2CCOCC2)cc1 | 16.8%
59 | COc1ccc(OC)c(CNC(=O)C2CCCN(S(=O)(=O)N3CC(C)CC(C)C3)C2)c1 (stereo not shown) | 9.2%
60 | CC1(C)C2CCC1(C)C(NC(=O)/C=C/c1ccccc1)C2 (stereo not shown) | 11.4%
61 | O=C(CCN1CCCCC1=O)NC1CCCN(Cc2ccc(Cl)cc2)C1 (stereo not shown) | 5.7%
62 | CC(=O)Nc1ccc(C(=O)COC(=O)CCc2ccccc2)c(F)c1 | 3.03%
63 | Cc1ccn2c(=O)nc(SCC(=O)NCc3ccccc3Cl)nc2c1 | 5.79%
64 | O=S(=O)(CCN1CCN(C(c2ccccc2)c2ccccc2)CC1)C(F)(F)F | 13.6%
65 | CC(/C=C/c1ccccc1)=N\NC(=O)c1cc(C)[nH]n1 | 3.73%
66 | CC1(c2cccc(Br)c2)NC(=O)N(CC(=O)NCC2CCCO2)C1=O (stereo not shown) | 8.58%
67 | Cc1ccc(N2CCN(C(=O)c3cc(-c4ccc(F)cc4)[nH]c3C)CC2C)cc1 (stereo not shown) | 10.3%
68 | CCC(C)[C@H](NS(=O)(=O)c1ccc(C)cc1)C(=O)N1CCC(C(=O)N[C@@H](Cc2ccccc2)C(=O)O)CC1 (stereo partly shown) | 16.7%
69 | CCOC(=O)C1CCCN(C(=O)Cn2nc(C)n3c(cc4c(OC)cccc43)c2=O)C1 (stereo not shown) | 0.901%

Row | SMILES | hERG current change (%, negative = inhibition) at 1uM
70 | CCN(CC)CCOc1nnc(-c2ccc(C)cc2)c2ccccc12 | -58.4%
71 | COC(=O)C1OC2(OC1C(=O)OC)c1ccccc1-c1ccccc12 (stereo not shown) | 14.6%
72 | CCN(CC)CCOC(=O)c1ccc(NC(=O)CCCN2C(=O)/C(=C/c3cccs3)SC2=S)cc1 | 13.4%
73 | CCOC(=O)Cc1nnc(NC(=O)c2cccc(OCC)c2)s1 | 5.24%
74 | CC(C)C(OC(=O)c1oc2ccccc2c1CSC1CCCCC1)C(=O)NC(N)=O (stereo not shown) | 12.5%
75 | CCc1nnc(NC(=O)c2cc(C)oc2C)s1 | -12.5%
76 | COCCN(Cc1ccccc1)C(=O)c1cccc(S(=O)(=O)N2CCN(c3ccccc3)CC2)c1 | -8.28%
77 | CC(C)c1ccc(OCC(=O)NN2C(=O)c3ccccc3C2=O)c(Br)c1 | 21.9%
78 | O=C(O)CCS(=O)(=O)c1cc(Br)cc2c1N(C(=O)C1CC1)CC2 | 9.91%
79 | Cc1oc(-c2cccc3ccccc23)nc1CN1CCC[C@H]1CO | 12.7%
80 | COc1ccc(S(=O)(=O)Cc2ccc(C(=O)N3CCN(c4ccccc4F)CC3)o2)cc1 | -8.15%
81 | Cc1ccccc1OCC(=O)NCc1ccccc1 | 6.9%
82 | CC(=O)N1CC(C)Oc2ccc(S(=O)(=O)NC(CC(=O)O)c3ccc(C)cc3C)cc21 (stereo not shown) | 13.9%
83 | O=C(Cc1ccc(Cl)cc1)NNC(=S)NC(=O)c1cccs1 | 15.1%
84 | Cc1ccc(S(=O)(=O)n2nc(OC(=O)c3ccco3)cc2N)cc1 | 15%
85 | COc1cc(C(=O)N2CCN(c3cc(Cl)ccc3Cl)CC2)cc(OC)c1OC | 7.1%
86 | NC(=O)c1cccc(C(N)=O)n1 | 15%
87 | O=c1[nH]c(=S)n(Cc2ccc(F)cc2)c(O)c1/C=N/N1CCCCCC1 | -17.2%
88 | Cc1ccc(C(=O)N/C(=C/c2ccc(-c3cccc([N+](=O)[O-])c3)o2)C(=O)NCCCN(C)C)cc1 | -73.3%
89 | Cc1ccc(C(=O)NCc2cccs2)cc1S(=O)(=O)N1CCCCC1 | 6.79%
90 | Cc1cc(C)nc(N/N=C/c2c[nH]c3ccccc23)n1 | 24.3%
91 | CCCn1cc(C(=O)O)cn1 | 12.6%
